From the RNAGym collection of RNA variant scans (doi:10.1073/pnas.2313332121)
Variants at the background level are over-represented here.

B1: TPR 5TU (parent)
chain: GGAUCUUCUCGAUCUAACAAAAAAGACAAAUCUGCCACAAAGCUUGAGAGCAUCUUCGGAUGCAGAGGCGGCAGCCUUCGGUGGCGCGAUAGCGCCAACGUUCUCAACUAUGACACGCAAAACGCGUGCUCCGUUGAAUGGAGUUUAUCAUG

Variants of: B1
Assay: polymerase ribozyme fitness, log enrichment relative to wild type (log ratio); higher = more active; in vitro selection for triplet polymerase activity
In short: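 Input and output libraries were sequenced on Illumina after a single in vitro selection round, run in triplicate on PCR-built, transcribed mutant libraries of each subunit of a heterodimeric triplet polymerase ribozyme. Selection annealed libraries to a biotinylated primer, the partner subunit and triplets, incubated them frozen at −7 °C, then gel-excised extended constructs for streptavidin-bead capture and RT-PCR. Genotypes with ≥10 input reads and ≥1 read per output were kept. Fitness is the logarithm, taken in base 2, of genotype enrichment divided by wild-type enrichment, using inverse-variance-weighted replicate averages.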

Variant	polymerase ribozyme fitness (log ratio)
G25C A52U A91U A98G	≤ -4.2
A26U C57A G59A U77A G92A	≤ -4.2
A26U A41C G71U C95A	≤ -4.2
A26U A40U A91U A121U	≤ -4.2
G25C U56A U104C A106U A113G U139G U145A	≤ -4.2
A26G C36U G65C A91G U111G C149A	≤ -4.2
A26G A41C C63U U78A U101G A121G A122U	≤ -4.2
A26U C51U G83U A150G	≤ -4.2
G25U U44G U45A U56A G80A C85U A97U	≤ -4.2
A26C U31G U45G	≤ -4.2
G25C C75A C93G C125U	≤ -4.2
G25C A64C G84C A113C	≤ -4.2
A24U C93U G136A	-1.47
A26C A49C G58C A73U A106G A138U G143U	≤ -4.2
A24U C125A	-0.572
A24U A28G C36U G62A U78G G83A A91G G128C	-3.66
G25U C32G G67C U90C G94U U151A	≤ -4.2
A26U A39U G58A A66C C93U C149G	≤ -4.2
A24U A49C U53A C87U C99A C103A U139C	≤ -4.2
G25C A37G C95U A107G	≤ -4.2
A26G A41G G42C U53A C54U A64G G94A U102G C116U	≤ -4.2
A24U C72A G94C A107G C116G	≤ -4.2
A26C C32A G84U A98C C123A	≤ -4.2
A26U G34A A47C C96A C116G G136A	≤ -4.2

Variant	polymerase ribozyme fitness (log ratio)
A26C G92C U104C C108U A115C	≤ -4.2
G25A G42C C43A G59C G83A C85U C114G A142U G143U	≤ -4.2
G25U C57A U90G A91G C95A C105G C125U	≤ -4.2
A26U A52C U53A G88U C99G U148C	≤ -4.2
G25U U55A C72G C93G G140A	≤ -4.2
A24U G84A C93G	≤ -4.2
A26G U55A	-2.03
G25C C35U G74C C75A U148G	≤ -4.2
A24U G86U	-2.59
A26U A29C G124U	≤ -4.2
A26U C27U U33A G34A U56A C57U C76A C85G G88A U127C	≤ -4.2
A24U G86U A107C A138C A142U	≤ -4.2
G25C U55G U56A G62C A73U C79G C93G C103A	≤ -4.2
A26G G83A G84U C96U A98C C118U	≤ -4.2
A24G U33G G71A C87G C93G C96A A98G A137G	≤ -4.2
A26C C27G C51G G83C A89C A138G A142U	≤ -4.2
A24U A39U C57U U61G C85U C103U C125U	≤ -4.2
A26U A49G C95U	-3.28
G25A C69G G70A C87A G140U	≤ -4.2
G25C A60G G86C C105U	-3.36
G25C A49U U55A G81A G94U U104G A121C A137G U151A	≤ -4.2
A26G C76A G94C	≤ -4.2
G25A A52U G92A G100U C105A	≤ -4.2
A26C U45G C63U C75U G80C G112C U144G	≤ -4.2

Variant	polymerase ribozyme fitness (log ratio)
A26G A115G G141U	≤ -4.2
A26C C57A A60C G88A U109G A110G C118G	-3.98
A26C G86A U102A G128U C131G	≤ -4.2
A26U G48A	-3.27
G25C A28C C38U A52C G84A U139A	≤ -4.2
G25U C85U U101C	-2.41
G25C C57U C123A C125G	-2.33
A26U A28C A52C G58A U139G A147C	≤ -4.2
G25U C76A G92U G133A G140A	≤ -4.2
A26U G42U	≤ -4.2
A26U A40C G68C G71U U82A A119C C125A A150C	≤ -4.2
A26G G67A U78C G80A C93A C114U A120U	≤ -4.2
A26U C93U A122U	-2.76
A26C G58A G59A U77C U90A C96U G152U	≤ -4.2
A26C C27A G46U G58U C85U C105G	≤ -4.2
A24U G58A A66U C87A U90G U146C	≤ -4.2
A26U G46U A47U G74C C79G G92U G140A	≤ -4.2
A24G U56A A137U	≤ -4.2
A24U A29U G48A	≤ -4.2
A24U U53A C57G A115U U151A	≤ -4.2
A24U A49C G59C C79A C108G	≤ -4.2
A24U A98U C99U U127G	-3.94
A24U C32A U53A C85U A115G A150U	≤ -4.2
A24U A41C A49G U61C C108U U146A	≤ -4.2

Variant	polymerase ribozyme fitness (log ratio)
A24U C96G	-0.301
A24U C43U G81U G86A A150G	≤ -4.2
G25U A28C G48C U56A G68C G83U G140U	≤ -4.2
G25C G68C C93A C99G C114U	≤ -4.2
A24G U44G	≤ -4.2
G25U G81C C93U U135A	≤ -4.2
G25C A28G A40G G126C G141A A142G U146C	≤ -4.2
G25U A39G U61A U77A C87U G141A U151A	≤ -4.2
A24U A28U C43A A49G G62C C87G G124U	≤ -4.2
A26G A89C A97C G143C	≤ -4.2
A24U A28C C35A C38G C79G G84C C116A C123G U144C	≤ -4.2
G25C G48A C85U G86U A89C U134A	≤ -4.2
A24U C35A A113U G141A	≤ -4.2
G25U U90G C96G A106U C123G	≤ -4.2
A24G U31A C51U U148G	≤ -4.2
A24G U55A G80A G94A	≤ -4.2
A26U G58U C93U A97G G124A U139C G143C	≤ -4.2
G25U C132U	-2.32
A26C A41U G81C G88A C116U U135C	≤ -4.2
G25U C32U C36A C85U C114U C129U U134C	≤ -4.2
A26U C27U A39G G80A A91G G92C	≤ -4.2
A24U U33C C36U C72G C87A A106U A121G C125U	≤ -4.2
A26C C75A C87A	≤ -4.2
A24U A37C C132U A137G	≤ -4.2

Variant	polymerase ribozyme fitness (log ratio)
A24G U61G C85A U101C A106U C116G	≤ -4.2
G25U A89C	-3.41
A26G G42C U78A C87G U111G U146G U151C	≤ -4.2
A26C G80C C114G	≤ -4.2
A26U A49U U55G C57U A64U C76A G92U C96U A98C C123A A142G	≤ -4.2
A26G A29C C51A A66C C87G A106G A107G G141U	≤ -4.2
G25C A91U G100U U109C C118G A138G G141C	≤ -4.2
A26C A30C G68A G86U G88C A138C	≤ -4.2
A26G C38U A110G U148A	≤ -4.2
A26G U33C C54U G88A C99G G117A	≤ -4.2
A26U C75U G83C C103U A106G A120G U127A	≤ -4.2
A24U C72U C76A U104G U151C	≤ -4.2
A26G U53A U101G U130A	≤ -4.2
A24U C27A C54A A150G	≤ -4.2
G25U A30U C35A G50A C96U A107U	≤ -4.2
A24U G80C	-4.14
G25C C51A U55A C93U G136A	≤ -4.2
A26U A29G G42A G50A G74U C103G U104C	≤ -4.2
G25A U55G U56A U61C C87U A97G C99U	≤ -4.2
G25C A40G A49G C51U A89G C96U	≤ -4.2
A26U A49U C87A U134G	≤ -4.2
G25C A28C C43A U101A G128A	≤ -4.2
G25U A66U C93U G94U C125A G126U	≤ -4.2
A24U G25A A39G A60U G83C	≤ -4.2

Variant	polymerase ribozyme fitness (log ratio)
G25C U44C G59A G84U C93G C103G	≤ -4.2
A24U C54A C79A	≤ -4.2
A26U C51U C72U A73U C85A C99G G100C U111G	≤ -4.2
A24U C43G U55A A60G G88A U90G	≤ -4.2
G25A A49G C96G	-3.91
G25U G42C U55A C87G A91C C93A G126U	≤ -4.2
G25C G68A	≤ -4.2
A26G G59A A60G U61A G80U G81A C93U C118G	≤ -4.2
A26U A30G C38U G71C	≤ -4.2
A24U C35U G68U C85G A89U A91U	≤ -4.2
A26C C63U A64G G83A A91G C129G U139C G141C G143U	≤ -4.2
A26U A60G C69A A97U C114U U135C	≤ -4.2
A26G G92U C108G G136C U144C	≤ -4.2
G25A G46U A64U G86U G88C C93G C123G	≤ -4.2
A24U G58A C79G A91U C118A G141C	≤ -4.2
A26G C103G U148A	≤ -4.2
A26U C38U C51G A73G G83C	≤ -4.2
G25U A41U A66U G71A G83A G141C	≤ -4.2
A26C G42C U56G C96A C118U U139C A147U	≤ -4.2
G25C A28U A52C U53A C57U C96A C116A A147G	≤ -4.2
A26C C51U A66G U111A A120U U146C	≤ -4.2
A24U U55C C85A	-1.34
A26U C36G U55A G58C C105U	≤ -4.2
A26U G50C G84A C118U	≤ -4.2

Variant	polymerase ribozyme fitness (log ratio)
A26C G34C A52C C75A G80C	≤ -4.2
A24U A26U C54U G84U U127A	≤ -4.2
A26U C54A U56G C75A C93A U134A	≤ -4.2
G25A U82C C105U C114U	≤ -4.2
A24U A37U U82G	-0.974
A26U A37C U45A A120C G143C	≤ -4.2
A26U A47C C54A G65C C93G C99U	≤ -4.2
G25A A37G C54A C87G	≤ -4.2
A26G A47U G80A C96U A137G G140C	≤ -4.2
A26C U144G	-0.859
A26U A40C A142C	≤ -4.2
A26C C85U G94A A115U G141A U144C	≤ -4.2
G25U A39C G70U C85A C116G	≤ -4.2
A26C G92C	-2.71
A26C G92A	≤ -4.2
A26U C35U G42C C108A A115C G133U U135A A142G U146C A147G	≤ -4.2
A26U C69G A142U	-2.62
G25A A26U A28C A41C A60G C76A A91U C108U	≤ -4.2
A26U C36U G46C A49C C69U A91C G94U G136C	≤ -4.2
A24U U44A G74A U130A	≤ -4.2
A26U A91C A97G A107U	≤ -4.2
A26U A30G U61A G100U C108U G141A	≤ -4.2
A26G G133A	≤ -4.2
